Source: the supplement of paper PMC11417369
The other results are listed elsewhere or left out.

Each sequence was assayed on PfAP2-HC AP2 domain (GST-tagged) (assay: gcPBM binding intensity (ln(normalized median fluorescence intensity)); higher = stronger DNA binding).
Method in brief: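 An Agilent 4 × 180k array carrying primer-extended double-stranded 36-bp intergenic genomic probes and negative controls received GST-tagged P. falciparum DNA-binding domains expressed in E. coli, about 25 μg on average, for 1 h. The binding buffer contained 1× PBS, 1% milk, 0.2 mg/ml BSA, 0.5% salmon testes DNA and 0.03% Triton X-100. Binding intensity is the top Masliner-normalised natural-log median intensity across replicate spots of either probe orientation, read after Alexa488 anti-GST antibody staining and a 488 nm scan.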

Sequence	gcPBM binding intensity (ln)
CATAAATACAAATATACACACATATATATATATATA [CACACA_site2633]	9.89
AATATGTTTTTTAGATGTACAGATTAAATATTAAAA [XGTACX_site7308]	9.49
AAAAAAAAAAAAAAAACACACAAACATCAAATTACT [CACACA_site6950]	9.99
AATTTCAATTTCTGTTGTACACTTTTTAATAGTAAA [XGTACX_site4085]	9.61
AAATTTAAAAATAAAGAACACACATATGTAAAATAT [CACACA_site9252]	9.95
TTTTGTATTTTTCACACACACATAAGTAAACAATAA [CACACA_site1899]	10.2
TATATTATATATATATGTACATATTATTATATCTAA [XGTACX_site3835]	9.66
TAAATGAAAATATGTACACACTTGAAAATTTTTATG [CACACA_site5599]	9.72
AATCTTTTTAAATCTTGATTAATTTCGGGTATATAT [TGCATGCA_negctrl_site107]	9.45
TACAAGAACAAAAAATGTACGAAATAATTACAAATA [XGTACX_site5824]	9.9
AAATTAAATATTATATTAATTCTTAAATTTTTTTTT [CACACA_negctrl_site439]	9.2
ATACAATAATATAAATGTACAAATTATATCTTCATT [XGTACX_site8994]	9.74
AAACATATGGTATTTAAACACACAAAAAAGAAAGAA [CACACA_site8239]	10.2
ATGTTGTGGATATATACACACATACATATTTATATA [CACACA_site6857]	9.79
AAGTGTTCTTGTTATACACACACATATATATATATA [CACACA_site8251]	9.94
TAGCATGATTTGCCTTGTACACAACCGTTTTAATAA [XGTACX_site7911]	9.69
TATGATAAATATGGAGCACACACACCGAAACATACA [CACACA_site8031]	10.8
TGTGCTATATTCATATGTACATATAATTATTATATA [XGTACX_site3549]	9.7
ATAAAATAAAAGTGTACACAAGAAAATATGTTATGT [CACACA_site6033]	10
ATAATATATTTATAATGTACATAAGAACAAATTAAA [XGTACX_site1745]	9.71
ACGTTTGATACACATAAAGTTTTCCTTTGAATGTAC [CACACA_negctrl_site106]	9.61
GGTATATTAAAATAGGTGCATAAAACTAAGAGAAAA [GTGCAC_site9781]	9.73
AAAAATTACCTGACTTGTACATAATTTAAGAACAAT [XGTACX_site6233]	9.57

Sequence	gcPBM binding intensity (ln)
AATAATACACAATTTTGTACGTATTTAAAATATATT [XGTACX_site45]	9.74
TATTTATGAGAAATAGTGCAAAGATATGATCTTTAA	9.52
AATTAAAAACATTTCACACATAAAAATGAAATATAT [CACACA_site5199]	9.56
TAAAATATATAATAATGTACATATTTTTATTTAGGA [XGTACX_site4987]	9.57
AAATTATAATATAATACACACATAAAAAAAAAATCA [CACACA_site3634]	10.1
TATATATATATATATTGTACACATATATATTTACGA [XGTACX_site4791]	9.57
TGATTCTTTTGTATCACACACACTTAGTTTAATTTT [CACACA_site2404]	10.2
TTTTTTTATTATCATGCACACATTTTTTTTTTTTAC [CACACA_site2253]	10.2
ACTTGACACGGACACACACACATATATAAAAAAAAA [CACACA_site4576]	10.5
TCCTTTATTTTTAAATGTACAAATATTATCTCCTCA [XGTACX_site5856]	9.5
ATAATAAAAATAAGAGAATAAAAATGCAATTTAATG [CACACA_negctrl_site878]	9.71
AACTCACATAAATTCACACAAATGTATATTCATATA [CACACA_site4554]	9.58
ATTTATAATGTGTATACACACATATATAGATTTGCT [CACACA_site6440]	9.8
ATTGATCGGATAAAATGTACAAATATATATATATAT [XGTACX_site7345]	9.74
TCTTTTTTTATTTTATTTTTTTTTTTTAAATAATTC [TGCATGCA_negctrl_site372]	9.52
CATATTAATATTATGGGTACATATAAATTTACATTC [XGTACX_site687]	9.59
ATTATAATATTGTTATGTACATAAAAATTATTGAAT [XGTACX_site4476]	9.82
AAAACATAAATACATACACACATAATATATATTAAT [CACACA_site109]	9.97
AAAAAATAATAAATCACACATATTATATATATATAT [CACACA_site5838]	9.64
AACATGAAAGATAGCAAAAAAAAAAAAAAAAAAAAA [TGCATGCA_negctrl_site607]	8.52
CCCGTAAATTATGAGTGTACGTTATTTTTTAAAATG [XGTACX_site3946]	9.46
ACATATACATATATATGTACATAAATATATATATAT [XGTACX_site8630]	9.72
GTGCATATCTGATATACACACAATAAAATAGTATGT [CACACA_site7203]	9.87

Sequence	gcPBM binding intensity (ln)
AATTATATATTTGAGAGTACATATGTAATGTTTATA [XGTACX_site6970]	9.8
CATATATTATTTATACGTACTAATAAAATAAATCAA [XGTACX_site1030]	9.36
TATGATACATAAATATGTACGTATAATATATATTTA [XGTACX_site7002]	9.73
TGCAAGCTTATATAGGTGCACATGTATACGTGTTCA	9.72
TATATACACAAACACACACACACATACACCCACATA [CACACA_site8504]	10.8
TATTAAAATTAAAAAAAAAAAAAAAAGCAATAAAAA [XGTACX_negctrl_site426]	9.41
TATGTAGTCACAAGGTGTACACTTTAACAAATTATG [XGTACX_site8792]	9.62
TTCTAACTTTTAAACACACAAATATAAATAAGTATA [CACACA_site7473]	9.54
GAACGTATCATGTGTACACACAAATTGTTTTTTTTT [CACACA_site2020]	10.1
AAATGAACAAGTGGCACACACACATTATAACTAATT [CACACA_site9048]	10.3
AAGAATAATAATAAATGTACACAATATTATATATAT [XGTACX_site5525]	9.76
AAGCTTCATTAATATACACACATATATGCGTATATT [CACACA_site3695]	9.91
TATATAATTATAAGAACACACATATATATATATATA [CACACA_site2472]	9.49
AAATTTGAAGAATATTGTACGCATAATAATTAAATA [XGTACX_site4300]	9.75
TGTATGAAATATATTACACACATATAAAATCTATAT [CACACA_site6514]	9.76
TTTTTAATTTTTTGTTGTACATATAATATATTATTA [XGTACX_site4903]	9.67
TTGATGTTGGTAGGATGTACGGTACCGGTAAAGTTT [XGTACX_site7705]	9.6
ATGCTTTTTAAATGATTGCACTAGATTGTAATATGT [GTGCAC_site9666]	9.66
TATATATATATTTTAACACACACATATATATATTTA [CACACA_site8892]	10
ATATATATATATTGCACACACAATTATTATTATTAT [CACACA_site2299]	10.1
TTTATTTATGTTGAAACATGCAAAAAGTTATTTATA [TGCATGCA_site716]	9.3
TTCAAAAGCCGGATAACATGCAGTAGTAGAACAAAC [TGCATGCA_site413]	9.94
ACTCCATAATATTGATGTACTATAATGCATTTATTT [XGTACX_site5562]	9.9

Sequence	gcPBM binding intensity (ln)
TATTTATTTTCATATAGTACTTTTTTCAGGCATATA [XGTACX_site6691]	9.55
TTATAGAATTTATTTACACACAAACATTTATACTTT [CACACA_site7592]	9.78
TGGTATATAAAACACACACACATATGTATTTATATA [CACACA_site4665]	10.2
TTTTGCCTTTCTACTTGTACTTAAAATATTATAATT [XGTACX_site5483]	9.82
TTTCTGTGTTTTGGTTGTACACACGCTACATTATAT [XGTACX_site5669]	10.3
TTGTTTTTTTTTTCTATAAGCATAAAAATGATATAA [XGTACX_negctrl_site356]	9.27
AAATTAAAAAAATAATGTACATGTATTTATTATGTA [XGTACX_site2419]	9.71
TTTATTTATTATTAAAGTACTAAATCATATAATTAT [XGTACX_site5727]	9.48
TTTTATTTCTTTGCACCATTTTAAATACAAACAAAT [CACACA_negctrl_site1553]	9.6
TAAAACAATACTTTGTGCTTCTCTGGTTTTTTTTTT [GTGCAC_negctrl_site284]	9.58
GCTTTTAAAATAATTGGTACACATGTATAAATTCAA [XGTACX_site2327]	9.61
AGTATTCACTTAATATGTACATATTTATTATAAGAG [XGTACX_site3434]	9.56
CACAAAAAGAAACACACACACATATATATATATATA [CACACA_site999]	10.2
ATTCTAAATAATAAGAGTACAAATAATATGGAGAAG [XGTACX_site5209]	9.75
GAAAATATGTAATAGTGTACACATATATATGTATAT [XGTACX_site306]	9.87
TGCTCATTCCTGTCATGTACATATTATATATATATA [XGTACX_site6890]	9.91
ATATGAACATTTACATGTACATGTAAATGTAACACT [XGTACX_site4574]	9.67
ACAGTATCTGGTAGCTGTACGAGTCGTAGAGTGTAG [XGTACX_site2011]	9.77
AAAATATAAAGTATTTGTACATAATATATTTTTAAA [XGTACX_site3494]	9.66
AATATATAAATAAATATATAAATAAATAATTGAAGC [CACACA_negctrl_site348]	10.1
